About 260 (0.074%) of roughly 350,000 compounds were called active. The inconclusive results got no clear call from the source; some entries with a clear call stand among them for comparison. Calls come from the whole dose curve; as a rule, active = well fitted inhibition curve with a large enough effect; inconclusive = small, poorly fitted or top-dose-only effect; inactive = no such curve, though single readings can be large or run the other way. Where the call is inconclusive, the potency comes from a doubtful curve fit.
molecular target: Ferritin light chain (Equus caballus) (UniProt P02791); assay: qHTS Assay for Identification of Novel General Anesthetics; settings: apoferritin/1-aminoanthracene competitive binding, fluorescence; activity change, negative = displacement: at 77.5 µM (top of the series); note: nearly all actives have a fitted effect of over 20% in size
UniProt P02791, sequence (P02791 whole entry, looked up): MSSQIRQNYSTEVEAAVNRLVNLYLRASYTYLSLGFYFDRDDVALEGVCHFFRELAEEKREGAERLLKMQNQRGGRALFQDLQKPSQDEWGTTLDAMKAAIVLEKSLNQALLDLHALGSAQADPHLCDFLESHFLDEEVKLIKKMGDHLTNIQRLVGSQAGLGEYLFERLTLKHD
How it was run: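 In PBS, apoferritin at 10 uM is loaded with 1-AMA from a 50% saturated solution. After 10 min of compound exposure at ambient temperature, reduced 535 nm fluorescence indicates probe displacement.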
% is set by controls: 0 for no effect and ±100 for the full control effect; potency is the fitted concentration of half-maximal effect; tags give direction and shape of the fitted curve.

SMILES	Potency	activity change, negative = displacement
Cc1cc(NC2CCCCC2)nc(NCc2ccccc2)n1	inconclusive: 35.5 µM [inhibitor, partial curve]	
CCOC(=O)c1nc(Nc2cccc(C)c2)c2ccccc2n1	inconclusive: 25.1 µM [inhibitor, single point]	
Cc1ccc(C(=O)Nc2ccc(C(F)(F)F)n(C)c2=O)cc1		inactive: -0.658%
N/C(Cc1cccs1)=N\OC(=O)COc1ccccc1	inconclusive: 28.2 µM [inhibitor, partial curve]	
O=Cc1cccc(Oc2ccc([N+](=O)[O-])cc2[N+](=O)[O-])c1	inconclusive: 20 µM [inhibitor, partial curve]	
C[N+]1(C)CC2=Cc3ccccc3CC2C1 (stereo unspecified)		inactive: -3.31%
O=C(CCSc1ccccc1)Nc1ccc(S(=O)(=O)N2CCOCC2)cc1	inconclusive: 31.6 µM [inhibitor, partial curve]	
COC(=O)NC(=S)Nc1ccc(Oc2ccc(Cl)cc2Cl)c(Cl)c1		inactive: -12.8%
COc1ccc2c(C)c(CC(=O)N3CCN(C(=O)C4COc5ccccc5O4)CC3)c(=O)oc2c1 (stereo unspecified)	inconclusive: 28.2 µM [inhibitor, single point]	
CCOc1ccc(N2C(=O)C3CC(C)=C(C)CC3C2=O)c([N+](=O)[O-])c1 (stereo unspecified)	inconclusive: 35.5 µM [inhibitor, partial curve]	
Cc1nc(N2CCC(C)CC2)c(C#N)c(C)c1[N+](=O)[O-]	inconclusive: 56.2 µM [inhibitor, single point]	
N/C(=N\OC(=O)c1ccc(Cl)c([N+](=O)[O-])c1)c1ccccc1		inactive: -2.68%
c1cc2c(cc1NC1CCCCCC1)OCO2	inconclusive: 10 µM [inhibitor, partial curve]	
O=C(Cn1cnc2c(cnn2-c2ccccc2)c1=O)N1CCCc2ccccc21	inconclusive: 35.5 µM [inhibitor, partial curve]	
O=C(N/N=C/c1cccnc1)c1ccccc1OCc1ccc(Cl)cc1	inconclusive: 28.2 µM [inhibitor, single point]	
CCCOc1ccc(-c2nnn(CC(=O)c3ccc4c(c3)OCCO4)n2)cc1	inconclusive: 5.62 µM [inhibitor, full curve]	
Cc1ccc(C(=O)NC(=C(Cl)Cl)S(=O)(=O)c2ccc(Cl)cc2)cc1	inconclusive: 14.1 µM [inhibitor, partial curve]	
COc1ccc(C2CC(=O)N3CN(C4CCCCC4)CSC3=C2C#N)cc1 (stereo unspecified)	inconclusive: 15.8 µM [inhibitor, partial curve]	
COc1ccc(CCN(Cc2cc3cccc(C)c3[nH]c2=O)C(=O)NC2CCCCC2)cc1OC	inconclusive: 28.2 µM [inhibitor, partial curve]	
Cc1ccc(-n2c(C)cc(/C=N/NC(=O)c3ccncc3)c2C)c(C)c1	inconclusive: 15.8 µM [inhibitor, partial curve]	
COc1ccccc1N1CCN(C(=O)CSc2nc(-c3ccc(C(C)C)cc3)no2)CC1		inactive: 70.4%
CCCCNC(=O)CSc1nc2n[nH]c(C)c2c(=N)n1-c1ccccc1CC		inactive: -5.01%

SMILES	Potency	activity change, negative = displacement
CCN(CC)c1ccc(NC(=S)NC(=O)Cc2ccccc2)cc1	inconclusive: 39.8 µM [inhibitor, single point]	
Cc1ccccc1Cc1c(C)nc2nc(SCC(=O)NC(C)c3ccccc3)nn2c1C (stereo unspecified)	inconclusive: 14.1 µM [inhibitor, partial curve]	
CCOc1ccccc1/C=N/NC(=O)CNC(=O)c1cccs1	inconclusive: 28.2 µM [inhibitor, partial curve]	
O=C1N=C(N2CCOCC2)S/C1=C\c1ccc(OS(=O)(=O)c2ccccc2)cc1	inconclusive: 31.6 µM [inhibitor, partial curve]	
O=C(CNC(=O)c1cccs1)N/N=C/c1c(F)cccc1Cl	inconclusive: 20 µM [inhibitor, partial curve]	
CCC(C)Sc1nc2ccccc2c(=O)[nH]1 (stereo unspecified)	inconclusive: 35.5 µM [inhibitor, single point]	
O=C(NCc1ccco1)C(c1ccc(F)cc1)N(CC1CCCO1)C(=O)Cn1nnc2ccccc21 (stereo unspecified)	inconclusive: 25.1 µM [inhibitor, partial curve]	
COCn1c(-c2ccccc2)nc2ccccc21	inconclusive: 35.5 µM [inhibitor, partial curve]	
CNc1nc2[nH]c(=O)c3c(c2s1)OC(N)=C(C#N)C3c1cccc(F)c1 (stereo unspecified)	inconclusive: 28.2 µM [inhibitor, single point]	
O=S(=O)(Cc1ccccc1Cl)NCc1ccccc1	inconclusive: 22.4 µM [inhibitor, partial curve]	
COc1ccc(C2N(c3ccccc3)CCN2c2ccccc2)cc1O	inconclusive: 35.5 µM [inhibitor, partial curve]	
CCC(C)NS(=O)(=O)c1ccc(S(=O)(=O)Nc2cc3c(cc2C(C)=O)OCO3)cc1 (stereo unspecified)	inconclusive: 35.5 µM [inhibitor, partial curve]	
Cc1cnc(NC(=O)CSc2ccc(Cl)cc2)s1	inconclusive: 35.5 µM [inhibitor, single point]	
Clc1ccccc1Sc1cnc2ccccc2n1	inconclusive: 31.6 µM [inhibitor, partial curve]	
COc1ccc(C)cc1NC(=O)CN(C)C1CCCCC1	inconclusive: 31.6 µM [inhibitor, single point]	
COC(=O)CN1C(=O)S/C(=C/c2ccc(N3CCCCC3)o2)C1=O	inconclusive: 17.8 µM [inhibitor, partial curve]	
O=C(c1cccc(Cl)c1)N1CCC(c2nc3c(nnn3Cc3ccc(F)cc3F)c(=O)[nH]2)CC1	inconclusive: 15.8 µM [inhibitor, partial curve]	
CCN1C(=O)N(c2cccc3ccccc23)C(C)=CC1(C)C	inconclusive: 11.2 µM [inhibitor, partial curve]	
COc1ccccc1N1C(=O)CC(N2CCN(c3ccc([N+](=O)[O-])cc3)CC2)C1=O (stereo unspecified)	inconclusive: 39.8 µM [inhibitor, single point]	
S=C(Nc1ccccc1Cl)NC1CCCCCC1	inconclusive: 35.5 µM [inhibitor, partial curve]	
O=[N+]([O-])c1cccc(S(=O)(=O)N2CCCCCC2)c1	inconclusive: 31.6 µM [inhibitor, partial curve]	
CCCCc1ccc(NC(=S)N2CCCC(CO)C2)cc1 (stereo unspecified)	inconclusive: 44.7 µM [inhibitor, single point]	

SMILES	Potency	activity change, negative = displacement
C=C(C)COc1ccc(-c2[nH]ncc2Oc2ccccc2OC)c(O)c1	inconclusive: 7.94 µM [inhibitor, partial curve]	
O=C(NNc1c(Cl)cccc1Cl)c1sccc1Cl	inconclusive: 25.1 µM [inhibitor, partial curve]	
O=C(Nc1ccc(S(=O)(=O)NCCc2ccccc2)cc1)c1ccco1	inconclusive: 28.2 µM [inhibitor, single point]	
COc1cc(C)ccc1OCCOCCOc1c(C)cc(C)cc1Br	inconclusive: 31.6 µM [inhibitor, partial curve]	
COc1ccc(CCNC(=O)CSc2nnc(-c3ccc(C)cc3)c(-c3ccc(C)cc3)n2)cc1OC	inconclusive: 17.8 µM [inhibitor, partial curve]	
N#CC1=C(N)OC2=C(CCC/C2=C/c2ccoc2)C1c1ccoc1 (stereo unspecified)		inactive: 3.52%
COc1cc(C(=O)N/N=C/c2cccc(Oc3ccccc3)c2)ccc1O	inconclusive: 20 µM [inhibitor, partial curve]	
[2H]C(CCOS(N)(=O)=O)c1ccc(C(C)(C)C)cc1 (stereo unspecified)	inconclusive: 31.6 µM [inhibitor, partial curve]	
CC(C)=NO[C@@H](C)c1cc(-c2c(C)cc(C)cc2C)no1		inactive: 1.12% [at 15.3 µM]
CCOC(=O)c1c(NC(=O)Nc2ccccc2)sc(C)c1C		inactive: -3.76%
CCOC(=O)c1ccc(NC(=O)c2nc(S(=O)(=O)Cc3ccccc3)ncc2Cl)cc1	inconclusive: 31.6 µM [inhibitor, partial curve, poor fit]	
c1ccc(-c2nc(-n3nc4ccccc4n3)nc3ccccc23)cc1	inconclusive: 11.2 µM [inhibitor, full curve]	
CC(C)Oc1ccc(C(=O)NCC(=O)OCC(=O)N(C)Cc2cccs2)cc1	inconclusive: 28.2 µM [inhibitor, partial curve]	
Cc1ccc(-n2nc(C(=O)N3CCCCC3C)c(=O)n(C)c2=O)cc1 (stereo unspecified)		inactive: -0.26%
COc1ccc(CCNC(=O)CN2CCN(c3ccccc3Cl)CC2)cc1	inconclusive: 31.6 µM [inhibitor, single point]	
CCC1C(=O)CC(c2ccco2)NC1c1ccco1 (stereo unspecified)		inactive: 0.356%
Oc1ccc(-n2nnnc2SCc2ccccc2Br)cc1	inconclusive: 50.1 µM [inhibitor, partial curve]	
CCOc1ccc(NC2=C(Cl)C(=O)N(Cc3ccccc3)C2=O)cc1	inconclusive: 12.6 µM [inhibitor, partial curve]	
CCC(CC)C(=O)Nc1cccc(C(=O)c2ccccc2)c1	inconclusive: 35.5 µM [inhibitor, partial curve]	
NC(=O)NOCc1c(Cl)cccc1Cl	inconclusive: 35.5 µM [inhibitor, single point]	
CC1=C(C(N)=O)C(c2cccc(C)c2)n2nc(-c3ccc(Cl)cc3)nc2N1 (stereo unspecified)	inconclusive: 8.91 µM [inhibitor, single point]	
CC(=O)c1cc(C#N)c(Oc2cccc(C(F)(F)F)c2)nc1C	inconclusive: 28.2 µM [inhibitor, partial curve]	

— PubChem BioAssay AID485281 (National Center for Advancing Translational Sciences (NCATS), 2010)
